# Results reported in paper PMC9911399, “Two distinct binding modes provide the RNA-binding protein RbFox with extraordinary sequence specificity”.
# Substitutions are numbered along the chain they refer to; changes in the protein carry UniProt numbers. The list shows a part of the results.
# T1: RBFOX1 RRM RbFoxmut (Fox-RRM*) (Homo sapiens, UniProt Q9NWB1 109-208, R118D;E147R;N151S;E152T)
# T1 sequence: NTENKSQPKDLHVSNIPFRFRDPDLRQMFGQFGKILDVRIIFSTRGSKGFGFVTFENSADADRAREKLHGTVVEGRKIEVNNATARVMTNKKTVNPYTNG
# B1: GGUUUAG (DNA:RNA)
# RNA: GGGAGACCGGAAUUCAGAUUGUCCGGUUUAGUUAAAUCCCGUCGUAGCCACCA
# DNA 1: CAATCTGAATTCCGGTCTCCC
# DNA 2: TGGTGGCTACGACGGGATT
# B2: CAGUUUU (DNA:RNA)
# RNA: B1 RNA with G25C, G26A, U27G, A30U, G31U
# DNA 1: CAATCTGAATTCCGGTCTCCC
# DNA 2: TGGTGGCTACGACGGGATT
# B3: GCAGAAG (DNA:RNA)
# RNA: B1 RNA with G26C, U27A, U28G, U29A
# DNA 1: CAATCTGAATTCCGGTCTCCC
# DNA 2: TGGTGGCTACGACGGGATT
# B4: ACCAACG (DNA:RNA)
# RNA: B1 RNA with G25A, G26C, U27C, U28A, U29A, A30C
# DNA 1: CAATCTGAATTCCGGTCTCCC
# DNA 2: TGGTGGCTACGACGGGATT
# B5: AAUAAUC (DNA:RNA)
# RNA: B1 RNA with G25A, G26A, U28A, U29A, A30U, G31C
# DNA 1: CAATCTGAATTCCGGTCTCCC
# DNA 2: TGGTGGCTACGACGGGATT
# B6: UCAGUAG (DNA:RNA)
# RNA: B1 RNA with G25U, G26C, U27A, U28G
# DNA 1: CAATCTGAATTCCGGTCTCCC
# DNA 2: TGGTGGCTACGACGGGATT
# B7: GACACCG (DNA:RNA)
# RNA: B1 RNA with G26A, U27C, U28A, U29C, A30C
# DNA 1: CAATCTGAATTCCGGTCTCCC
# DNA 2: TGGTGGCTACGACGGGATT
# B8: AUUGACG (DNA:RNA)
# RNA: B1 RNA with G25A, G26U, U28G, U29A, A30C
# DNA 1: CAATCTGAATTCCGGTCTCCC
# DNA 2: TGGTGGCTACGACGGGATT
# B9: AUAUAGU (DNA:RNA)
# RNA: B1 RNA with G25A, G26U, U27A, U29A, A30G, G31U
# DNA 1: CAATCTGAATTCCGGTCTCCC
# DNA 2: TGGTGGCTACGACGGGATT
# B10: GGGCUAC (DNA:RNA)
# RNA: B1 RNA with U27G, U28C, G31C
# DNA 1: CAATCTGAATTCCGGTCTCCC
# DNA 2: TGGTGGCTACGACGGGATT
# B11: AGACAGC (DNA:RNA)
# RNA: B1 RNA with G25A, U27A, U28C, U29A, A30G, G31C
# DNA 1: CAATCTGAATTCCGGTCTCCC
# DNA 2: TGGTGGCTACGACGGGATT
# B12: CAACCGA (DNA:RNA)
# RNA: GGGAGACCGGAAUUCAGAUUGUCCCAACCGAUUAAAUCCCGUCGUAGCCACCA
# DNA 1: CAATCTGAATTCCGGTCTCCC
# DNA 2: TGGTGGCTACGACGGGATT
# B13: ACCUAAG (DNA:RNA)
# RNA: B1 RNA with G25A, G26C, U27C, U29A
# DNA 1: CAATCTGAATTCCGGTCTCCC
# DNA 2: TGGTGGCTACGACGGGATT
# B14: GUCUUCC (DNA:RNA)
# RNA: B1 RNA with G26U, U27C, A30C, G31C
# DNA 1: CAATCTGAATTCCGGTCTCCC
# DNA 2: TGGTGGCTACGACGGGATT
# B15: UAUAUAA (DNA:RNA)
# RNA: B1 RNA with G25U, G26A, U28A, G31A
# DNA 1: CAATCTGAATTCCGGTCTCCC
# DNA 2: TGGTGGCTACGACGGGATT
# B16: AUAGGUC (DNA:RNA)
# RNA: B12 RNA with C25A, A26U, C28G, C29G, G30U, A31C
# DNA 1: CAATCTGAATTCCGGTCTCCC
# DNA 2: TGGTGGCTACGACGGGATT
# B17: AGUUCAU (DNA:RNA)
# RNA: B1 RNA with G25A, U29C, G31U
# DNA 1: CAATCTGAATTCCGGTCTCCC
# DNA 2: TGGTGGCTACGACGGGATT
# B18: CAAAAAG (DNA:RNA)
# RNA: B12 RNA with C28A, C29A, G30A, A31G
# DNA 1: CAATCTGAATTCCGGTCTCCC
# DNA 2: TGGTGGCTACGACGGGATT
# B19: CUUCUCU (DNA:RNA)
# RNA: B12 RNA with A26U, A27U, C29U, G30C, A31U
# DNA 1: CAATCTGAATTCCGGTCTCCC
# DNA 2: TGGTGGCTACGACGGGATT
# B20: UGUUGAU (DNA:RNA)
# RNA: B1 RNA with G25U, U29G, G31U
# DNA 1: CAATCTGAATTCCGGTCTCCC
# DNA 2: TGGTGGCTACGACGGGATT
# Target: T1, RBFOX1 RRM RbFoxmut (Fox-RRM*)
# Experiment: EMSA; HiTS-Eq, 1 nM pool, 10 min; buffer printed only for the single-RNA assays: 10 mM Tris pH 7.5, 150 mM NaCl, 3.4 mM EDTA, 0.001% NP-40, 30 C
# Settings: tags: His6 N-terminal (pET28a); label: 5' 32P
# In short: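 A pool of RNA with 7 randomized nucleotides, 5′-radiolabelled and with DNA-annealed flanks, was equilibrated at 1 nM for 10 min in 50 µL with purified RbFox RRM, wild type or mutant, across increasing protein concentrations. Free RNA was separated by 8% native PAGE, excised, reverse-transcribed, barcoded by PCR and sequenced. Relative association constants were obtained from read-count changes of each RNA species versus the control reaction and normalised to the cognate motif.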
row,Binder,binding signal
1,B1,0.0977 KA relative to UGCAUGU
2,B2,0.105 KA relative to UGCAUGU
3,B3,0.0857 KA relative to UGCAUGU
4,B4,0.118 KA relative to UGCAUGU
5,B5,0.0642 KA relative to UGCAUGU
6,B6,0.126 KA relative to UGCAUGU
7,B7,0.0808 KA relative to UGCAUGU
8,B8,0.0959 KA relative to UGCAUGU
9,B9,0.108 KA relative to UGCAUGU
10,B10,0.0681 KA relative to UGCAUGU
11,B11,0.0612 KA relative to UGCAUGU
12,B12,0.0449 KA relative to UGCAUGU
13,B13,0.11 KA relative to UGCAUGU
14,B14,0.125 KA relative to UGCAUGU
15,B15,0.0485 KA relative to UGCAUGU
16,B16,0.106 KA relative to UGCAUGU
17,B17,0.109 KA relative to UGCAUGU
18,B18,0.068 KA relative to UGCAUGU
19,B19,0.0664 KA relative to UGCAUGU
20,B20,0.146 KA relative to UGCAUGU
